# Data as given in PubChem BioAssay AID686971 (National Center for Advancing Translational Sciences (NCATS), 2013).
# About 7,500 (2.1%) of roughly 360,000 compounds were called active. This list was built around the results that the source calls inconclusive (neither active nor inactive); the mix of calls is not that of the screen. Calls follow the shape of the dose curve; as a rule, active = well fitted cell-killing curve with a large enough effect; inconclusive = small, poorly fitted or top-dose-only effect, or effect the other way, or another doubt; inactive = no such curve, though single readings can be large or run the other way. No potency is given beside an inconclusive call; the fits are too rough.
# Assay: qHTS for induction of synthetic lethality in tumor cells producing 2HG: qHTS for the HT-1080-IDH1KD cell line;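 as to activity, negative = toxicity: 0% = DMSO wells and -100% = cell-free medium wells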
# Conditions: HT-1080 IDH1 knockdown viability, ATP luminescence, 48 h; activity, negative = toxicity: at 46.1 µM (top of the series) unless noted
# Procedure, shortened: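 In this qHTS, HT-1080 cells depleted of IDH1 are exposed for 48 h at 37 °C to compound titrations. Toxicity is scored from CellTiter-Glo luminescence, with DMSO as full viability and medium alone as none.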
# Potency is read from the fitted curve at half-maximal effect; tags tell the direction and shape of the fitted curve.
Structure (SMILES),Potency,"activity, negative = toxicity"
Cc1ccc(S(=O)(=O)N2CCN(C(=O)c3ccccc3Cc3ccccc3)CC2)c(C)c1,"inconclusive [cytotoxic, single point]",
COc1ccc(NC(=O)COc2ccccc2C(=O)NCC(c2ccccc2)N(C)C)cc1Cl (stereo not drawn),"inconclusive [cytotoxic, single point]",
COC(=O)Cc1ccc(NC(=O)c2ccc(NC(=O)c3ccco3)cc2)cc1,,inconclusive: 36.8%
CC(C)C[C@H](NC(=O)c1nc[nH]c1C(=O)NC(c1ccccc1)c1ccccc1)C(=O)OC(C)(C)C,active: 20.6 µM,
CC/C(C)=N/NC(=O)c1[nH]c2ccc(C)cc2c1-c1ccccc1,"inconclusive [cytotoxic, single point]",
Oc1ccccc1/C=N/NC(=S)NC1CC2CC1C1C=CCC21 (stereo not drawn),active: 8.2 µM,
CCOc1ccccc1NC1=CC(=O)CC(c2ccccc2)C1 (stereo not drawn),active: 13 µM,
CC(O)CNCCCOc1ccc(Cl)cc1C(C)(C)C (stereo not drawn),"inconclusive [cytotoxic, single point]",
N#CC1=C(N)Oc2cc(O)ccc2C1c1cccnc1 (stereo not drawn),inactive,
COc1cc(/C=C2\SC(=S)N(Nc3ccccc3)C2=O)cc(OC)c1OC,"inconclusive [cytotoxic, partial curve]",
CCOC(=O)c1cc(/C(C)=N/OC(=O)c2ccc(C(C)(C)C)cc2)on1,inactive,
Cc1ccccc1SCC(=O)N/N=C/c1ccc(F)cc1,inactive,
CC(C)C[C@H](NC(=O)c1nc[nH]c1C(=O)N[C@@H](CC(C)C)C(=O)OCc1ccccc1)C(=O)OCc1ccccc1,"inconclusive [cytotoxic, single point]",
Cc1cc(=O)n2c3ccccc3n(CC(O)CN3CCCC3)c2c1C#N (stereo not drawn),"inconclusive [cytotoxic, single point]",
O=C(/C=C/c1cccs1)Nc1nc(-c2ccccc2)cs1,"inconclusive [cytotoxic, single point]",
O=[N+]([O-])c1ccc(Sc2cccc[n+]2[O-])c2nonc12,active: 0.58 µM,
COc1ccc(CNc2nc(NCc3ccc(OC)cc3)c3ncn(C4CCCC4)c3n2)cc1,active: 4.61 µM,
Cc1ccc(S(=O)(=O)N2CCCCC2)cc1NC(=O)CSc1ncnc2ccccc12,inactive,
COc1ccc2ccccc2c1CNC(C)c1ccccc1 (stereo not drawn),"inconclusive [cytotoxic, single point]",
COc1c(Br)cc(/C=N/n2c(-c3ccccc3)n[nH]c2=S)c(O)c1Br,"inconclusive [cytotoxic, single point]",
COc1ccccc1NS(=O)(=O)c1ccc2c(c1)CCN2C(=O)CCC(=O)O,inactive,
Cc1nc(N2CCN(c3ccccc3O)CC2)c2c(-c3ccccc3)csc2n1,"inconclusive [cytotoxic, single point]",

Structure (SMILES),Potency,"activity, negative = toxicity"
O=C(CCCN1C(=O)/C(=C\c2ccccc2)SC1=S)Nc1ccccc1O,"inconclusive [cytotoxic, single point]",
COc1ccc(NS(=O)(=O)c2ccc(NC(=O)c3ccc(N(C)S(C)(=O)=O)cc3)cc2)c(OC)c1,"inconclusive [cytotoxic, full curve, poor fit]",
O=C(COc1ccc2c(-c3ccccc3)cc(=O)oc2c1)Nc1ccc(CCO)cc1,"inconclusive [cytotoxic, single point]",
CC(=O)c1cccc(NC(=O)c2ccc(N(Cc3ccc(C)cc3)S(C)(=O)=O)cc2)c1,"inconclusive [cytotoxic, single point]",
C=CCn1c(SCCOc2ccc(OC)cc2)nnc1C(C)NC(=O)Cc1ccc(OC)cc1 (stereo not drawn),"inconclusive [cytotoxic, single point]",
COc1ccc(COC(=O)Nc2cc3c(C(F)(F)F)nn(C)c3s2)cc1,"inconclusive [cytotoxic, single point]",
COc1ccc(N2CCN(C(=O)c3ccc4c(c3)CCN4S(=O)(=O)c3ccccc3)CC2)cc1,"inconclusive [cytotoxic, single point]",
CCCc1nc2c(c(=O)c3ccccc3n2C)c(=O)n1C1CCCCCC1,"inconclusive [cytotoxic, single point]",
CCOC(=O)c1sc2ccccc2c1OC(=O)c1ccccc1OC,"inconclusive [cytotoxic, single point]",
CCOC(=O)c1cc(-c2ccc(OC)cc2F)nc2c1c(C)nn2CCC#N,inactive,
Cc1ccc(S(=O)(=O)Nc2ccc(Br)cc2/C=N/n2cnnc2)cc1,"inconclusive [cytotoxic, partial curve]",
O=C(Nc1cc(S(=O)(=O)Nc2ccc(Cl)cc2)ccc1N1CCCCC1)c1ccc(F)cc1,"inconclusive [cytotoxic, single point]",
CC1=NOC(=O)/C1=C\c1ccc(-c2cccc(Cl)c2)o1,active: 18.4 µM,
COc1ccc(C2Nc3ccccc3C(=O)N2Cc2ccccc2)cc1CSc1ccccn1 (stereo not drawn),inactive,
Cc1nc2c(-c3ccccc3)c(C)nn2c(N)c1-c1ccccc1,"inconclusive [cytotoxic, single point]",
Nc1cc(S(=O)(=O)Nc2ccc(Br)cc2)ccc1Cl,"inconclusive [cytotoxic, single point]",
O=C1NC(c2ccccc2)=C(c2nc3ccccc3s2)C(c2ccc(F)cc2)N1 (stereo not drawn),"inconclusive [cytotoxic, single point]",
Cc1ccc(CC2S/C(=C(/C#N)C(=O)NCc3ccco3)N(c3ccccc3)C2=O)cc1 (stereo not drawn),"inconclusive [cytotoxic, single point]",
CN(C)c1cc[n+](CC(=O)c2ccc(-c3ccccc3)cc2)cc1,active: 16.4 µM,
CCOCC(=O)NC1CCc2cc(OC(=O)COCC)c(OC)c(OC)c2-c2ccc(SC)c(=O)cc21 (stereo not drawn),active: 0.146 µM,
COc1cc(C(=O)Nc2ccc(C(=O)c3cccs3)cc2)cc(OC)c1OC,"inconclusive [cytotoxic, single point]",
